Paper PMC4336329 (PLoS ONE, 2015)
In all, about 310,000 compounds went through this assay and about 2,200 (0.71%) showed an effect of 50% or more. Effects have a minus sign here. This is one part of the list.

Each compound was assayed against human ether-à-go-go-related gene (hERG) potassium channel (human, UniProt Q12809) (assay: primary screen, population patch clamp on CHO cells stably expressing hERG).
human ether-à-go-go-related gene (hERG) potassium channel, sequence (Q12809 whole entry, looked up): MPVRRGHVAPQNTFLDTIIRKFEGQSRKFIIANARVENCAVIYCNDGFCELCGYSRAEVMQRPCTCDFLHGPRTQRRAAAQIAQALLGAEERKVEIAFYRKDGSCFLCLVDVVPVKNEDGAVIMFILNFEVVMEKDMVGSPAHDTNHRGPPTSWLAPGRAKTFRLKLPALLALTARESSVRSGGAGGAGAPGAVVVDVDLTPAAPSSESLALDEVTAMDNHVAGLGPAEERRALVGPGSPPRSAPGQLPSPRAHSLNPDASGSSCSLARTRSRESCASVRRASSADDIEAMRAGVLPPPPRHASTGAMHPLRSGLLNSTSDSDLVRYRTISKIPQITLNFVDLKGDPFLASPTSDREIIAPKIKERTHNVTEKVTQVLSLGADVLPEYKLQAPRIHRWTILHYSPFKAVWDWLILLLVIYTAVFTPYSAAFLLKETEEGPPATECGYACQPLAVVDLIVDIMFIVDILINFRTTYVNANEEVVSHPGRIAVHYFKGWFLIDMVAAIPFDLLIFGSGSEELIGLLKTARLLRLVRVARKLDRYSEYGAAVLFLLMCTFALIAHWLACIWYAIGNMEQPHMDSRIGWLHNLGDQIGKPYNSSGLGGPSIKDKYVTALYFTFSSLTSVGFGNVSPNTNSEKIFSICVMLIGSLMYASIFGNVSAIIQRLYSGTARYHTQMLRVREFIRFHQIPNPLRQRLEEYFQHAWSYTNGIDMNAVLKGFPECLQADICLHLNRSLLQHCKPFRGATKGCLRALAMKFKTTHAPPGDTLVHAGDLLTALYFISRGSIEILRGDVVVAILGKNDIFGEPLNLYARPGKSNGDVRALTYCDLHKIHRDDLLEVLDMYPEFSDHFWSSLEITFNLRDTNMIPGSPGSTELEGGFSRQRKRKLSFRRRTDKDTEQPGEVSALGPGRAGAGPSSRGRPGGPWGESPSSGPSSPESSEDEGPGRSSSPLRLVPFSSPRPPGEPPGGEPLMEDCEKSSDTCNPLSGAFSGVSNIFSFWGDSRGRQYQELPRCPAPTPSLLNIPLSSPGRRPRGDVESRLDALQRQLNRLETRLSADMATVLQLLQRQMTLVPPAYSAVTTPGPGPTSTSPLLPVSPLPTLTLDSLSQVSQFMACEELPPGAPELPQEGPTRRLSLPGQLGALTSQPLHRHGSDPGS

Compound | hERG current change (%, negative = inhibition) at 1uM [%]
CCCS(=O)(=O)N1CCN(Cc2ccc([N+](=O)[O-])cc2)CC1.O=C(O)C(=O)O | -5.35
CN(C(=O)COC(=O)c1ccc(Cl)cc1N)C1CCCCC1 | 8.95
N/C(=N\OC(=O)c1cccc(Cn2cc(C(F)(F)F)ccc2=O)c1)c1ccccc1 | 8.43
CC(C)c1nnc(SCC(=O)NCc2ccc3c(c2)OCO3)n1C | -0.917
CCC(=O)Nc1nonc1-c1nc2ccccc2n1Cc1cccc2ccccc12 | 10.5
CCCCc1ccc(NC(=O)CSC2=NN3CCCC(=O)N=C3S2)cc1 | 4.68
Cc1cc(=O)[nH]c(SCC(=O)C23CC4CC(CC(C4)C2)C3)c1C#N | 13.6
COc1ccc(C(=O)NC2CC2)cc1OC1CCN(Cc2ccc(F)cc2)CC1 | -81.9
O=C(C1=C(O)C(=O)N(CCc2ccccc2)C1c1cccnc1)c1ccco1 (centres unmarked) | 5.33
CCC(=O)c1ccc(OCC(=O)NCC2COc3ccccc3O2)cc1 (centres unmarked) | -1.99
CCN(CC)S(=O)(=O)c1cc(C(=O)OCC(=O)Nc2cccc(C)c2C)ccc1F | 8.54
CN(c1cccc(NC(=O)CCSc2ccccc2)c1)S(C)(=O)=O | -2.89
COc1ccccc1NS(=O)(=O)c1ccc(Br)s1 | -9.96
Fc1ccc(-c2cc(-c3cccs3)cc(-c3ccccc3)n2)cc1 | 12.7
COC(=O)CC1=C(C(=O)OC)C(c2ccc3c(c2Cl)OCO3)C(C#N)=C(N)O1 (centres unmarked) | -7.56
CC1CCCCN1Cc1c(O)ccc2c(=O)c(-c3ccc(Cl)cc3Cl)coc12 (centres unmarked) | -4.43
Cc1cc(C)c(C(=O)COC(=O)CCNS(=O)(=O)c2c(Cl)cccc2Cl)cc1C | 12.2
CC1(C)S[C@@H]2[C@H](N=CN3CCCCCC3)C(=O)N2[C@H]1C(=O)O | 7.21
CCCCC(CC(O)COCCC)c1n[nH]c(=S)n1-c1ccccc1 (centres unmarked) | 10.8
CC1(C)SC2c3ccccc3C(=O)N2[C@@H]1C(=O)NCc1ccco1 (some centres unmarked) | 6.96
O=C1c2ccccc2C(Nc2ccc3c(c2)OCCO3)N1c1ccccn1 (centres unmarked) | 1.35
COc1cccc(OC)c1C(=O)n1nc(C)cc1C | 8.86

Compound | hERG current change (%, negative = inhibition) at 1uM [%]
CCN(Cc1ccccc1)S(=O)(=O)c1csc(C(N)=O)c1 | -2.28
O=C(CCCn1cc([N+](=O)[O-])cn1)NC1CCCCCC1 | 4.37
CCOc1cccc2cc(C(N)=O)c(=NCc3ccccc3)oc12 | 0.376
COc1cc(CNn2nnnc2N)ccc1OCC(=O)NC(C)(C)C | 0.339
COc1ccc(-n2c(O)c(C=NCCN3CCN(C(C)=O)CC3)c(=O)[nH]c2=S)cc1 | 13.2
Cc1ccccc1NC(=O)CCC(=O)N/N=C/c1cc([N+](=O)[O-])ccc1O | 0.664
O=C(NCc1ccco1)c1ccc(Cn2c(=O)c3ccccc3n(Cc3cccc(F)c3)c2=O)cc1 | 7.65
CC(C)CC1NC(=O)N(Cc2nc3ccccc3s2)C1=O (centres unmarked) | 1.54
COc1cccc(NC(=O)CN(C)C(=O)c2cc(-c3ccccc3)nc3ccccc23)c1 | 12.5
Cc1cc(N/C(=N\S(=O)(=O)c2ccc(Cl)cc2)c2ccc(F)cc2)no1 | 1.04
COc1cc(SC)ccc1C(=O)NCCN1CCOCC1 | 15
O=c1sc(Nc2ccccc2)nc2ccccc12 | 4.24
CCOC(=O)C(Oc1ccc2c(-c3ccccc3)cc(=O)oc2c1)c1ccccc1 (centres unmarked) | 10.7
Cc1ccc2nc(Nc3ccccc3O)nc(-c3ccccc3)c2c1 | 15.8
CCOc1ncccc1C(=O)NCc1ccccc1 | 9.9
CC1=CCC2C(=O)N(CCc3c[nH]c4ccccc34)C(=O)C2C1 (centres unmarked) | 2.89
CC(C)CN1CCN(C(=O)CCc2nnc(Cc3c[nH]c4ccccc34)o2)[C@@H](C)C1=O | 6.1
CCCCS(=O)(=O)Nc1ccc2cn[nH]c2c1 | 3.5
Cc1cc(C)c(NC(=S)N(CCc2ccncc2)C(C)C)c(C)c1 | 2.51
CCc1ccccc1N(C)S(=O)(=O)c1cc(-c2cc(C)no2)ccc1OC | 15.3
Cc1ccc(-n2ncc3c2CC(C)(C)CC3NC(=O)CCN2CCCCC2=O)cc1 (centres unmarked) | 1.85
CN(C)CCNC(=S)Nc1ccc(Cl)cc1 | 6.76

Compound | hERG current change (%, negative = inhibition) at 1uM [%]
O=C(COc1ccc([N+](=O)[O-])cc1)Nc1ccc(C(=O)Nc2ccccc2C(=O)O)cc1 | -6.32
CN(C(=O)COC(=O)C1CSC2(C)CCC(=O)N12)c1ccccc1 (centres unmarked) | 6.89
CCN(CC)S(=O)(=O)c1ccc(N2CCCC2)c(NC(=O)c2ccncc2)c1 | -5.02
COc1ccc(-n2c3c(c(=O)[nH]c2=O)C(NS(=O)(=O)c2ccc(Cl)cc2)(C(F)(F)F)C(=O)N3)cc1 (centres unmarked) | 12
CC(C)N(C(=O)/C=C/c1cccc([N+](=O)[O-])c1)C(C)C | 7.97
Cc1cc(=O)oc2cc(NC(=O)c3ccnn3C)ccc12 | 14.4
COc1ccc(C(=O)NC2CCc3ccccc32)cc1OC1CCN(C(C)C)CC1 (centres unmarked) | -1.49
CCOc1ccccc1NC(=O)C(=O)/C=C(\O)c1cc(OC)ccc1OC | 19.4
COC(C(=O)Nc1ccnn1C1CCN(Cc2cnn(C(C)C)c2)CC1)c1ccccc1 (centres unmarked) | 4.49
Cn1c2ccccc2c2nnc(SCc3nnc(-c4ccccc4)o3)nc21 | -12.2
CC(C)OCCCNC(=O)CNC(=O)c1cccs1 | 12.3
Cc1ccccc1CC1(CO)CCCN(C(=O)c2ccc3ncccc3c2)C1 (centres unmarked) | 14.5
Cc1nc(NC(=O)CSc2nnc3ccccn23)c(Cl)cc1Cl | 0.223
O=C(NCC1CCCO1)c1cnc(Cl)c(Cl)c1 (centres unmarked) | 12.1
O=C(c1cccn2c(=O)c3ccccc3nc12)N1CCN(Cc2ccc3c(c2)OCO3)CC1 | -54.4
Cc1ccc(/C=N/NC(=O)CN2CCN(Cc3ccccc3)CC2)s1 | -22
COc1ccc(-c2csc(N)n2)cc1 | 5.19
CCN1C(=O)CC(N2CCC(Nc3ccc(F)cc3)CC2)C1=O (centres unmarked) | 8.57
NS(=O)(=O)c1ccc(NCc2ccccc2OCc2ccc(F)cc2)cc1 | -12.3
O=[N+]([O-])c1ccc(Cl)c(CN2CCN(c3ncccn3)CC2)c1 | 9
NS(=O)(=O)c1ccc(NC(=O)COC(=O)CNC(=O)C23CC4CC(CC(C4)C2)C3)cc1 | -0.322
Cc1ccc(C)c(NC(=O)C2CCCN2C(=O)OC(C)(C)C)c1 (centres unmarked) | 9.8

Compound | hERG current change (%, negative = inhibition) at 1uM [%]
Cc1cnc(C(=O)Nc2ccc(C)c(S(=O)(=O)N3CCCCC3)c2)cn1 | 2.5
Cc1ccc(N2C(=O)NC(=O)/C(=C/C=C/c3ccco3)C2=O)cc1 | 10.9
COc1cc2c(cc1OC)C1=C(C#N)CC/C(=N\S(=O)(=O)c3cccc(Cl)c3)N1CC2 | -3.52
O=c1cc(CN2CCN(Cc3ccccc3)CC2)c2ccc(O)c(O)c2o1 | -21.7
CC(C)n1nnnc1SCC(=O)N1CCN(Cc2ccc3c(c2)OCCO3)CC1 | 2.08
c1ccc(-c2ccc3sccc3n2)cc1 | 12.8
Cc1ccc(NC(=O)C(C)OC(=O)Cc2c[nH]c3ccccc23)cc1 (centres unmarked) | 1.69
O=C(Nc1ccc(N2CCOCC2)c(S(=O)(=O)Nc2cc(Cl)ccc2Cl)c1)c1cccnc1 | 3.94
Cc1ccc(S(=O)(=O)c2c(N)n(Cc3ccco3)c3nc4ccccc4nc23)cc1C | -2.5
CC(C)(C)NC(=O)[C@@H]1C[C@@H]2CCCC[C@@H]2CN1C[C@@H](O)[C@H](Cc1ccccc1)NC(=O)[C@H](CC(N)=O)NC(=O)c1ccc2ccccc2n1.CS(=O)(=O)O | -12.7
O=c1[nH]c(=S)n(C2CC2)c(O)c1C=NCCc1ccccc1 | 8.78
COCCn1nnnc1CN(Cc1ccco1)Cc1cc2cc3c(cc2[nH]c1=O)OCO3 | -3.33
COc1ccc(N=C(c2ccccc2)c2c(C)[nH]n(-c3ccccc3)c2=O)c(OC)c1 | 7.06
O=C(NC(=S)Nc1ccccc1Cl)c1ccco1 | 13.2
Cc1[nH]nc(SCC(=O)N2CCCC2)c1[N+](=O)[O-] | 3.07
Cc1cc(C)nc(Sc2ccc(/C=C(\C#N)C(N)=O)o2)n1 | 0.7
Cc1nc2ccccc2c2oc(C(=O)N3CCC(C)CC3)cc12 | -2.21
CCN(CC)S(=O)(=O)c1cc(OC)ccc1N=Nc1ccc(O)c2ncccc12 | 13.5
COC(=O)Cn1cc(C(=O)c2ccccc2F)c2ccccc21 | 14.3
COc1cc(NC(=O)Cc2ccccc2)nc(OC)n1 | 11.6
